According to publication PMC4336329 (PLoS ONE, 2015):
The campaign covered roughly 310,000 compounds. About 2,200 (0.71%) showed an effect of 50% or more. The effect is printed as a negative number. The list shows a part of the results.

target: human ether-à-go-go-related gene (hERG) potassium channel (human, UniProt Q12809); assay: primary screen, population patch clamp on CHO cells stably expressing hERG
Sequence (Q12809 whole entry, looked up): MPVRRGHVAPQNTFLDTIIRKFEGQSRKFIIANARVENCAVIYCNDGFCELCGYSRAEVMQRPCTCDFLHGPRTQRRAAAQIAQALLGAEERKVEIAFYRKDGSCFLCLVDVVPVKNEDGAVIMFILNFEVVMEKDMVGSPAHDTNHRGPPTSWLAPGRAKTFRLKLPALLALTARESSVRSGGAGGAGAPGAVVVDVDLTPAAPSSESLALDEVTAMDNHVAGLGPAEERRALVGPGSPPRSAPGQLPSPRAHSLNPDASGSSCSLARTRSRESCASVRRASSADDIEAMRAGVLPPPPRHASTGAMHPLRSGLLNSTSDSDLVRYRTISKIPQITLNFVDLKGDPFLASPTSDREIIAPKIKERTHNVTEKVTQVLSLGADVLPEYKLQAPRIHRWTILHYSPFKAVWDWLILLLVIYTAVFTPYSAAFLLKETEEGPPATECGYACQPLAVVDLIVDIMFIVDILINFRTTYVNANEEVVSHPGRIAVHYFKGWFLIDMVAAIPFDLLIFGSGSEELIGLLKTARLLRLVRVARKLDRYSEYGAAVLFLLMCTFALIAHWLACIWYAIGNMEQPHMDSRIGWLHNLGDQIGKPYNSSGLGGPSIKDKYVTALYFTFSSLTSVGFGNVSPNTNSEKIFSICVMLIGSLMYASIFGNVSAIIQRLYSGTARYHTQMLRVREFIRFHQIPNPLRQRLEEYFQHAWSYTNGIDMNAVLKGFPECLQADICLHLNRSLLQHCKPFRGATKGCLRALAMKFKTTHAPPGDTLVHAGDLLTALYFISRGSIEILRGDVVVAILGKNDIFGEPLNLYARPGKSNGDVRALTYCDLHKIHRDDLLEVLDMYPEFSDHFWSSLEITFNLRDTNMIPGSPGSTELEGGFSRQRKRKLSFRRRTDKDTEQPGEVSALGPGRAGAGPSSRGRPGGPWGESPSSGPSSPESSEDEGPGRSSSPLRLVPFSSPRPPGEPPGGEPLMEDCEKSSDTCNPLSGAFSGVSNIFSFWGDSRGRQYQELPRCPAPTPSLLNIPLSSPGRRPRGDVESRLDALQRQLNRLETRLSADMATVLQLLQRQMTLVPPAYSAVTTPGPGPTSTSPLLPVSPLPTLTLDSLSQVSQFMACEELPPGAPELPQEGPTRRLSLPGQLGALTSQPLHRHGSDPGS

Structure (SMILES) | hERG current change (%, negative = inhibition) at 1uM
CCOC(=O)c1c(C)[nH]c(C(=O)OCC(=O)Nc2cc(C)c(Cl)cc2OC)c1C | 15.3%
Cc1ccc(S(=O)(=O)Nc2cccc(C(=O)NCCCN3CCCC3=O)c2)cc1F | 8.25%
CCOC(=O)N1CCN(C(=O)C(NC(=O)C2CCC(C)CC2)C(C)C)CC1 (stereo not drawn) | 11.9%
CCc1nnc(NC(=O)CSc2nnc(-c3cccnc3)n2C)s1 | 5.09%
O=S(=O)(NCCOc1ccccc1F)c1cccc(Br)c1 | 17.4%
CC(OC(=O)CCN1C(=O)c2cccc([N+](=O)[O-])c2C1=O)C(=O)Nc1cc(Cl)cc(Cl)c1 (stereo not drawn) | -7.46%
COc1ccc(CN2CCCC(C(=O)N3CCCC3)C2)cc1.O=C(O)C(=O)O (stereo not drawn) | -15.8%
COCCCn1c(SCC(=O)Nc2ccccc2)nnc1-c1ccncc1 | -0.44%
Cc1ccccc1NC(=O)CN1C(=O)COc2ccc(S(=O)(=O)N3CCCC3)cc21 | 14.1%
O=[N+]([O-])c1ccc2c(c1N1CCCCC1)=NC1(CCCCC1)[N+]=2[O-] | 8.55%
CSc1ccccc1NC(=O)Cn1ccsc1=N | 27.7%
COc1ccc(C(=O)Nc2ccc3ccccc3c2)cc1 | 15.1%
Cc1ccc(S(=O)(=O)N(CCO)Cc2cc3ccc(C)c(C)c3[nH]c2=O)cc1 | 4.28%
C=CCNC(=O)/C(C#N)=C\c1cc(Cl)c(OCC)c(OC)c1 | 10.9%
Cc1ccc(S(=O)(=O)Nc2ccc(NC(=O)CN3CCCCC3)c(Cl)c2)cc1 | 18.4%
Cc1ccc(S(=O)(=O)N2CCOCC2)cc1NC(=O)COC(=O)Cn1c(C)csc1=O | 14.4%
O=S(=O)(NCCn1cccc1)c1ccc2ccccc2c1 | 12.9%
Cc1ccccc1NC(=O)Cc1nc(COC(=O)c2cccc([N+](=O)[O-])c2)cs1 | 9.54%
Cc1cc(C)n(-c2nc(SCC(=O)O)c3c4c(sc3n2)CCCC4)n1 | 10.6%
COCCn1c(Cc2cccn2C)nnc1SCC(=O)Nc1nccs1 | 3.63%
CCOC(=O)Cn1cc(C(=O)C2CC2)c2ccccc21 | -4.21%
COc1cccc(COC(=O)C2CCN(S(=O)(=O)c3ccc(C)cc3)CC2)c1OC | 13.6%
O=C(CCl)N1CCN2C(=O)c3ccccc3C12c1ccc(Cl)cc1 (stereo not drawn) | 9.81%
COc1ccc(C(C(=O)NCC2CCCO2)N(C(=O)CNC(=O)c2cccs2)c2ccc(C)cc2)cc1OC (stereo not drawn) | 0.634%
